From the supplement of paper PMC6531468
Some of the results follow. These are enrichments in a pooled selection; single values are uncertain. Scores sum up all selected molecules that hold the word; the word was not tested alone.

Key:
Assay in all cases: 6-mer SELEX enrichment z-score vs GST control; IMP3 is the RNA-binding protein IGF2BP3; higher = more enriched by binding
[1] = tested on: IMP3 KH1-4; details: construct: KH1-4 (164-579); SELEX round: R4
Protocol: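 SELEX-seq with GST-tagged IMP3 KH1-4 (Pro164-Lys579) and an N40 RNA pool, round 4. 6-mer z-score of sequence-tag enrichment normalised to the corresponding GST SELEX round; RNA k-mers written as DNA (T for U).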

[2] = tested on: IMP3 RRM1-2; details: construct: RRM1-2 (1-163); SELEX round: R2
Protocol: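 SELEX-seq with GST-tagged IMP3 RRM1-2 (Met1-Asn163) and an N40 RNA pool, round 2. 6-mer enrichment z-score normalised to GST SELEX. RNA written as DNA (T = U).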

[3] = molecular target: IMP3 full-length (UniProt O00425); details: construct: FL IMP3 (1-579); SELEX round: R4
Protocol: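 SELEX-seq with GST-tagged full-length IMP3 and an N40 RNA pool, round 4. Each 6-mer is scored as an enrichment z-score of sequence tags containing it, normalised to the matching GST SELEX round. RNA written as DNA (T = U).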

[4] = tested on: IMP3 KH1-2; details: construct: KH1-2 (164-376); SELEX round: R4
Protocol: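 SELEX-seq with GST-tagged IMP3 KH1-2 (Pro164-Phe376) and an N40 RNA pool, round 4 (stringent 300/600 mM KCl washes). 6-mer z-score of sequence-tag enrichment normalised to the corresponding GST SELEX round; RNA k-mers written as DNA (T for U).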

[5] = tested on: IMP3 KH3-4; details: construct: KH3-4 (377-579); SELEX round: R4
Protocol: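 SELEX-seq with GST-tagged IMP3 KH3-4 (Pro377-Lys579) and an N40 RNA pool, round 4. 6-mer z-score of sequence-tag enrichment normalised to the corresponding GST SELEX round; RNA k-mers written as DNA (T for U).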

Chain of UniProt O00425 (O00425 whole entry): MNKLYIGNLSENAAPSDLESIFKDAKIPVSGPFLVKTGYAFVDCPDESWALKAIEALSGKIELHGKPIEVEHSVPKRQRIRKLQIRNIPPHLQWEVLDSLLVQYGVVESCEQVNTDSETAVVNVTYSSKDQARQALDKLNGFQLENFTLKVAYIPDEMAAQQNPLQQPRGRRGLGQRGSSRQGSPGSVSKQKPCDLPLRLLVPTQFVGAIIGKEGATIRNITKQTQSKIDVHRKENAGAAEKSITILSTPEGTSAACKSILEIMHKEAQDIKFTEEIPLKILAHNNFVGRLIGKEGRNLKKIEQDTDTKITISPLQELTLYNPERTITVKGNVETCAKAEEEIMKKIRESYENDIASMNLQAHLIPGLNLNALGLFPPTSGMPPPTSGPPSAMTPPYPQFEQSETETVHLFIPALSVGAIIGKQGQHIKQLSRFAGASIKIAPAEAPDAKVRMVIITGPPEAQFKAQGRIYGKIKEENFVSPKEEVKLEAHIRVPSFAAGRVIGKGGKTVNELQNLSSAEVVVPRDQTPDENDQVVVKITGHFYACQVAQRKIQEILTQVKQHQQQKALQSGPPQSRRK
Chain of IMP3 KH1-4 (chain, as listed by the source): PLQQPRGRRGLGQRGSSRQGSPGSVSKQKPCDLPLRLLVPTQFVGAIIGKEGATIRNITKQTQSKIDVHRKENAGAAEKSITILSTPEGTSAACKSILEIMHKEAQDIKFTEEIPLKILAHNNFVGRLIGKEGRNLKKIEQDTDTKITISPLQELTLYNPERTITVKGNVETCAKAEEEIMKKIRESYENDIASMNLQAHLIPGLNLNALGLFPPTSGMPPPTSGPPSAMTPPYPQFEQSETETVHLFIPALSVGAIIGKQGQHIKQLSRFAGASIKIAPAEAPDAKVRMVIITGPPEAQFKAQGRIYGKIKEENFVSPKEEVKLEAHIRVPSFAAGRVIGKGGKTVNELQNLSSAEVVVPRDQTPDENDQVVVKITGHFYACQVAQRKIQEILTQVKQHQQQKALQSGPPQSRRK
Chain of IMP3 RRM1-2 (chain, as listed by the source): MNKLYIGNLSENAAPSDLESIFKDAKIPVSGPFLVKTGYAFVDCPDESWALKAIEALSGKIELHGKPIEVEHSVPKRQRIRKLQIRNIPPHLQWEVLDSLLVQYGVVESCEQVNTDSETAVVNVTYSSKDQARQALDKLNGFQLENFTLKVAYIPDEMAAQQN
Chain of IMP3 KH1-2 (chain, as listed by the source): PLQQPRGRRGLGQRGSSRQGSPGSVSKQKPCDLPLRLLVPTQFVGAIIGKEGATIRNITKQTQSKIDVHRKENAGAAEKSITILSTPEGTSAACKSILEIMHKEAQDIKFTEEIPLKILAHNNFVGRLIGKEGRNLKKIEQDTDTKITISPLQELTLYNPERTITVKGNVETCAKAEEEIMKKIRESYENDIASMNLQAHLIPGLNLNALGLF
Chain of IMP3 KH3-4 (chain, as listed by the source): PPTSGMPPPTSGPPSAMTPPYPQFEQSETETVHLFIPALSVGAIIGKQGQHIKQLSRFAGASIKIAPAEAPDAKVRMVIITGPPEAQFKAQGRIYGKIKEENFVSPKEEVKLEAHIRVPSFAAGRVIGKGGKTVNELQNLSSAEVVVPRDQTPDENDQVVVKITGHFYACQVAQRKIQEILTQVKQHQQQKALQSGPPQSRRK

Sequence	6-mer SELEX enrichment z-score [1]	6-mer SELEX enrichment z-score [2]	6-mer SELEX enrichment z-score [3]	6-mer SELEX enrichment z-score [4]	6-mer SELEX enrichment z-score [5]
ATGCCA	0.015	-0.371	-0.191	-0.114	-0.28
ATTAAG	0.753	-0.188	-0.035	0.567	1.38
GGTCGT	0.018	0.356	0.296	0.076	0.183
TCTGAA	-0.155	-0.401	-0.366	-0.12	-0.118
GACTCA	-0.732	-0.011	-0.368	-0.649	-0.943
CGCATT	0.381	0.636	0.62	0.244	0.104
CACCTC	-0.728	0.213	-0.322	-0.613	-1.18
AGACCT	-0.968	-1.02	-1.15	-0.909	-1.04
GAGACC	-1.33	-1.33	-1.26	-1.16	-1.45
GCTAAG	-0.16	-0.137	-0.15	-0.182	0.058
GTCTTG	-0.492	0.514	-0.065	-0.376	-0.244
AGTAAT	0.456	-0.201	-0.039	0.304	0.725
ATCCAT	0.481	0.646	0.433	0.49	0.052
CATTTG	0.415	0.59	0.451	0.265	0.362
AGACGA	-0.939	-1.47	-0.781	-0.9	-0.669
CAGATA	1.09	0.199	0.616	1.14	1.24
GCATGT	0.43	0.545	0.604	0.245	0.314
AACTCG	-1.74	-0.477	-0.98	-1.6	-1.68
GGAGTT	0.042	0.131	-0.015	0.093	0.268
ATTATT	1.77	0.338	0.543	1.49	2.22
